Measured values published in PubChem BioAssay AID1508624 (National Center for Advancing Translational Sciences (NCATS), 2021).
Out of some 48,000 compounds screened, about 120 (0.25%) were called active. Not shown: some 4% with an inconclusive outcome. The call rests on the fitted dose curve; in most records, active means well fitted activation curve with a large enough effect; inconclusive means small, poorly fitted or top-dose-only effect, or another doubt; inactive means no such curve, though single readings can be large or run the other way. This is one part of the list.

assay: Primary qHTS for Identification of Small Molecule Activators of Huntingtin-Antisense Promoter Activity; details: HEK293 HTT-AS promoter firefly luciferase reporter, 24 h; series mostly up to 57.5 µM; activity change, positive = activation: at the top concentration; further: nearly all actives have a fitted effect of over 55% in size
Summary of the method: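 HEK293 cells carrying firefly luciferase reporters were seeded at 2,500 per well in Opti-MEM and cultured for 24 h. They were then treated with compounds at up to 57.5 uM final for 24 h at 37 degrees C before Dual-Glo luminescence readout.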

Activity change, positive = activation, inactive:
CC(NC(CCc1ccccc1)C(=O)O)C(=O)N1C(=O)N(C)CC1C(=O)O (centres undefined) -5.15%
O=S(=O)(O)c1ccc2nc(-c3ccccc3)[nH]c2c1 -5.36%
CCN(CC)CCSc1nnc2c3cc(F)ccc3n(C)c2n1 -13.6%
COC(=O)c1ccc(OC)c(CN2C(=O)N(c3ccc(C(C)=O)cc3)S(=O)(=O)c3ccccc32)c1 -39.7%
CCOC(=O)c1c(C)[nH]c(CCC(=O)Nc2ccc(Cl)cc2C)c1C -15.3%
Cc1ccc(CNCc2c(C(=O)O)n(Cc3ccc(C)cc3)c3cc(C)ccc23)cc1 -57.7%
COc1ccc(-c2noc(CNS(=O)(=O)c3ccc(Br)cc3)n2)cc1OC -29.8%
Cc1ccc(-c2noc(CN(C(=O)COc3cc(C)cc(C)c3C)C(C)C)n2)cc1 -23.4%
Cn1c(=O)c2c(c3ccccc31)OC(=O)CC2c1cccc(F)c1 (centres undefined) 3.29%
O=C(Nc1ccc(Cl)cc1)N1CCN(c2ccc3nnc(-c4ccccc4)n3n2)CC1 -42.2%
CN(C)C(=O)Nc1ccc(Cl)c(Cl)c1 -1.09%
CCOc1ccc(NC(=O)c2cc3c(=O)n(Cc4cccs4)ccc3nc2C)cc1 -13.7%
O=C(C1CCC(Cn2c(=O)c3sccc3n(Cc3ccccc3F)c2=O)CC1)N1CCCCC1 (centres undefined) -16.3%
COc1ccccc1N(CC(=O)NCCSCc1cccc(Cl)c1)S(C)(=O)=O -25.9%
CCCCNC(=O)C1CCN(S(=O)(=O)c2ccc3c(ccn3CC)c2)CC1 -15.7%
CC(C)NC(=O)C1CCN(C(=O)c2cc3sccc3n2Cc2ccc(Cl)cc2)CC1 -60.1%
Cc1cc(C)c(NC(=O)c2ncoc2-c2ccco2)c(C)c1 -13.5%
CC(=O)N1C[C@H](O)C[C@H]1C(=O)O -7.18%
CC(=O)c1ccc(NC(=O)c2ccc(-c3nc(CSc4ccccc4)c(C)o3)cc2)cc1 -31.2%
Fc1ccc(-c2noc3ncnc(NCC4CCN(Cc5ccc(Cl)cc5)CC4)c23)cc1 -31.3%
COc1cc(NC(=O)c2cc(C)nc3c2c(C)nn3-c2ccccc2Cl)cc(OC)c1 -24.3%
CO[C@@]1(NC(=O)CSC[C@@H](N)C(=O)O)C(=O)N2C(C(=O)O)=C(CSc3nnnn3C)CS[C@@H]21 -11.6%
Cc1ccc2cc3c(N)nn(C(=O)c4cccc(F)c4)c3nc2c1 11.2%
Cc1cc2nc3c(=O)[nH]c(=O)nc-3n(CC(O)C(O)C(O)CO)c2cc1C (centres undefined) -7.81%
COc1ccc(CCNC(=O)c2cnc3sc(N4CCCC4)nn3c2=O)cc1OC -12.6%
CN(C(=O)c1cc2c(s1)-c1ccc(Cl)cc1SC2)c1cccc(C(F)(F)F)c1 -1.79%
O=C(CN1C(=O)COc2ccc(S(=O)(=O)N3CCCCC3)cc21)NCc1ccc(Cl)cc1 -27.3%
Cc1ccc(CNC(=O)c2nnn(CC(=O)Nc3cc(C)ccc3C)c2N)cc1 0.403%
CSCCC(NS(=O)(=O)c1ccc2c(c1)oc(=O)n2C)C(=O)N1CCN(c2cccc(Cl)c2)CC1 (centres undefined) -27.8%
CCOC(=O)c1cc(-c2ccc(F)cc2)n(CCC(=O)NCCc2ccc(C)cc2)c1C -34.3%
Cc1ccc(CN(Cc2ccco2)C(=O)COc2ccc(Cl)cc2)o1 -32.7%
CCc1ccccc1NS(=O)(=O)c1ccc(NC(=O)N2CCCC2)cc1 5.07% [at 11.5 µM, percent change from vehicle, -100% = no light]
CCOc1ccc(-c2cc(-c3nc(-c4cc(OC)c(OC)c(OC)c4)no3)[nH]n2)cc1 -1.52%
O=C(Nc1ccc2nc(SCC(=O)N3CCCc4ccccc43)sc2c1)c1ccccc1 -28.7%
CCOC(=O)c1ccc(NC(=O)Nc2cc3c(cc2N2CCCC2)n(C)c(=O)n3C)cc1 -19.5%
Cc1cc(CC(=O)O)n(C)c1C(=O)c1ccc(Cl)cc1 -6.19%
COC(=O)c1cc(NC(=O)c2nn(C)c3c2COc2ccccc2-3)cc(C(=O)OC)c1 -2.89%
Nc1c(C(=O)Nc2ccc(F)c(F)c2)sc2nc(-c3ccncc3)ccc12 5.54%
COc1cccc(CNC(=O)c2cc(C)nc3c2c(C)nn3-c2cccc(F)c2)c1 -14.8%
COc1ccc(S(=O)(=O)Nc2ccc3c(c2)CCCN3S(=O)(=O)c2ccc(C)cc2)cc1F -28.8%
COc1ccccc1NC(=O)C1=C(C)Nc2nc(SCc3ccccc3F)nn2C1c1cccs1 (centres undefined) -25.3%
O=C(COCc1cc(-c2ccc3c(c2)OCO3)on1)N1CCN(c2ccccc2)CC1 -9.73%
COc1cc(-c2nn(C3CCC(N4CCN(C(C)=O)CC4)CC3)c3ncnc(N)c23)ccc1NC(=O)c1cc2ccccc2n1C (centres undefined) -24.4%
Cc1ccc(S(=O)(=O)NCCc2cn3ccsc3n2)cc1 -7.07%
CCC(CC)C(=O)Nc1nc2c(s1)CC(C)CC2 (centres undefined) 6.06% [at 11.5 µM, percent change from vehicle, -100% = no light]
COc1ccc(-n2nnnc2C2CCN(S(=O)(=O)c3ccc(C(C)(C)C)cc3)CC2)cc1 -6.45%
NS(=O)(=O)c1cccc2c1C(=O)c1cccc(O)c1C2=O -93.9%
Cc1cc(C)cc(NC(=O)Cn2nnc(-c3nc(-c4ccncc4)no3)c2N)c1 0.345%
Cc1cc2c(cc3c(SCc4nc(-c5ccccc5)oc4C)nnc(C)n32)o1 -19.9%
Cc1ccc(N2CCN(S(=O)(=O)c3ccc(F)c(C(=O)Nc4ccc(Cl)cc4Cl)c3)CC2C)cc1 (centres undefined) -15.3%
CCn1ccc2c(OCC(=O)Nc3ccccc3C)cccc2c1=O -20.9%
CC(C)c1ccc(OCC(=O)N(Cc2ccc(N(C)C)cc2)C2CCS(=O)(=O)C2)cc1 (centres undefined) -11%
C=Cc1ccc(CSc2nc(-c3ccc(C)cc3)nc3c2Cc2c(CO)cnc(C)c2O3)cc1 -12.2%
O=C(Nc1cccc(C(=O)OCc2cc(=O)n3c4c(sc3n2)CCCC4)c1)c1ccccc1 -5.72%
Cc1cccc(NC(=O)C(NS(=O)(=O)c2ccc3c(c2)oc(=O)n3C)C(C)C)c1 (centres undefined) -12.6%
O=c1c(S(=O)(=O)c2cccc(Cl)c2)cn(Cc2ccccc2)c2cc(N3CCOCC3)c(F)cc12 5.2%
O=C1NC(=O)C(=Cc2ccc(-c3ccc(F)cc3)o2)S1 -13.7%
Cc1ccc2nc(-c3cccnc3)c(Nc3ccccc3C)n2c1 -21.8%
CCOc1ccc(S(=O)(=O)Nc2nc3ccccc3nc2Nc2ccc(OC)cc2)cc1 -18.7%
CCc1ccc(NC(=O)Cn2c(=O)n(Cc3ccco3)c(=O)c3cccnc32)cc1 -31.2%
CCCNC(=O)CCSc1nc(-c2ccc3c(c2)OCO3)cc(C(F)(F)F)n1 -13.5%
Cc1cc(C)c2nc(N(Cc3cccnc3)C(=O)CCOc3ccccc3)sc2c1 -1.42%
COc1ccccc1CCNS(=O)(=O)c1ccc(N2CCCCS2(=O)=O)cc1 -17%
COc1ccc(NC(=O)CCc2nnc3n(CC(C)C)c(=O)c4ccccc4n23)cc1 -10.7%
CCc1ccccc1NC(=O)C1CCCN(c2ncnc3onc(C)c23)C1 (centres undefined) -18.6%
COc1ccc(CNC(=O)c2ccc(CS(=O)Cc3ccccc3Cl)o2)cc1 (centres undefined) -7.88%
CC12CCC(CC1)C(C)(C)O2 -0.333%
Cc1ccc(C2c3[nH]c4ccccc4c3CCN2C(=O)CCC2CCCC2)cc1 (centres undefined) -34.8%
Cc1ccc(-n2nc(C(=O)N3CCN(c4cc(Cl)ccc4C)CC3)c3c4ccccc4n(C)c3c2=O)cc1 3.91%
Cc1ccc(Cl)cc1-n1ncc2c(Nc3cccc(C)c3C)ncnc21 -18.3%
O=C(c1ccc(CSc2nc3ccncc3n2Cc2ccccc2)cc1)N1CCCCCC1 1.65%
Cc1ccc(NC(=O)Cn2ccn(-c3ccc(F)c(F)c3)c(=O)c2=O)cc1C -4.57%
CCc1nn2c(=O)cc(COC(=O)c3ccccc3NC(=O)C3CCCCC3)nc2s1 5.02%
CCc1ccccc1NC(=O)CCc1c(C)nn(-c2ccc(N3CCOCC3)nn2)c1C 13.1%
CC(=O)Nc1ncc([N+](=O)[O-])s1 -0.859%
CCc1ccc(CNCc2c(C(=O)O)n(Cc3ccc(F)cc3Cl)c3cc(OC)ccc23)cc1 -62.3%
O=C(c1ccc(F)cc1)n1nc(-c2ccccc2)nc1NCc1ccc(F)cc1 7.73%
COc1cc2ccccc2cc1C(=O)N1CCN(c2nc3ccc(F)cc3s2)CC1 -42%
COc1cc(CCC(=O)NCc2ccc3c(c2)CCN3C(=O)c2ccc(F)cc2)cc(OC)c1OC -5.31%
CCOC(=O)c1c(SCC(=O)Nc2cc(Cl)cc(Cl)c2)nc(=O)[nH]c1C -9.29%
CCCCNC(=O)C1CCC(CNS(=O)(=O)c2ccc(NC(C)=O)cc2)CC1 (centres undefined) -8.21%
COc1ccc(-c2nc3c(c(SCC(=O)N(C)c4ccccc4)n2)Cc2cc(C)ccc2O3)cc1 15%
COc1ccc2ncc3c(-c4ccc(C)c(C)c4)nn(CC(=O)NC4CCCC4)c3c2c1 -9.78%
Cc1ccc2nc(NCc3ccc(F)cc3)c3nncn3c2c1 -3.46%
Cc1nc(-c2ccc(S(=O)(=O)NCc3ccc(N(C)C)cc3)cc2)co1 -36.1%
Cc1cccc(-n2ncc3c(N4CCN(c5ccccc5)CC4)ncnc32)c1 -21.1%
CCN(CC)c1ccc(NC(=O)Cn2nc(C)n3cccc3c2=O)c(C)c1 -6.81%
CCc1ccc(NC(=O)Cn2cc(S(=O)(=O)N3CCCC3)c(S(=O)(=O)N3CCCC3)c2)cc1 1.06% [at 11.5 µM, percent change from vehicle, -100% = no light]
CC(C)NC(=O)CCN1C(=O)c2ccccc2Sc2ncccc21 -8.35%
O=C(NC1CC(=O)N(c2ccc(F)cc2)C1)C1CC1 (centres undefined) -13.3%
COc1ccc2oc(=O)c(-c3nc(-c4cccs4)no3)cc2c1 -16.7%
Cc1ccc(NC(=O)Cn2nnc(C(=O)NCc3ccc4c(c3)OCO4)c2N)cc1Cl -20.5%
CSc1nc2sc3c(c2c(=O)n1-c1ccccc1)CCC(C(C)(C)C)C3 (centres undefined) -5.12%
Cc1cc(C)cc(NC(=O)CCCc2nc(-c3ccccc3Cl)no2)c1 -12.4%
